# Measured values reported in PubChem BioAssay (NCATS).
# The inconclusive results got no clear call from the source; some entries with a clear call stand among them for comparison. For some assays here: Potencies of inconclusive entries are left out as doubtful fits. Activity calls are given as the source filed them. The call rests on the fitted dose curve; in most records, active means well fitted curve in the direction sought with a large enough effect; inconclusive means small, poorly fitted or top-dose-only effect, or another doubt; inactive means no such curve, though single readings can be large; an effect the other way counts as inactive or inconclusive.
# Experiments:
# Furin (Homo sapiens) = Furin (Homo sapiens) (UniProt P09958); experiment: Furin counterscreen qHTS for Zika virus inhibitors (AID 1347149); settings: furin enzymatic counterscreen, fluorogenic substrate; activity change, negative = inhibition: at 114 µM (top of the series); further: nearly all actives have a fitted effect of over 70% in size; further: potency means the concentration at half of the fitted maximal effect;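 on activity change, negative = inhibition: purified recombinant full-length human furin enzyme at 5 nM; fluorescence gain from furin cutting a BOC-RVRR-AMC peptide substrate over 15 min; top concentration of the series differs between compounds; plate controls were no-inhibitor control for no effect and no-enzyme control for full effect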
# Sequence of UniProt P09958 (P09958 whole entry, looked up): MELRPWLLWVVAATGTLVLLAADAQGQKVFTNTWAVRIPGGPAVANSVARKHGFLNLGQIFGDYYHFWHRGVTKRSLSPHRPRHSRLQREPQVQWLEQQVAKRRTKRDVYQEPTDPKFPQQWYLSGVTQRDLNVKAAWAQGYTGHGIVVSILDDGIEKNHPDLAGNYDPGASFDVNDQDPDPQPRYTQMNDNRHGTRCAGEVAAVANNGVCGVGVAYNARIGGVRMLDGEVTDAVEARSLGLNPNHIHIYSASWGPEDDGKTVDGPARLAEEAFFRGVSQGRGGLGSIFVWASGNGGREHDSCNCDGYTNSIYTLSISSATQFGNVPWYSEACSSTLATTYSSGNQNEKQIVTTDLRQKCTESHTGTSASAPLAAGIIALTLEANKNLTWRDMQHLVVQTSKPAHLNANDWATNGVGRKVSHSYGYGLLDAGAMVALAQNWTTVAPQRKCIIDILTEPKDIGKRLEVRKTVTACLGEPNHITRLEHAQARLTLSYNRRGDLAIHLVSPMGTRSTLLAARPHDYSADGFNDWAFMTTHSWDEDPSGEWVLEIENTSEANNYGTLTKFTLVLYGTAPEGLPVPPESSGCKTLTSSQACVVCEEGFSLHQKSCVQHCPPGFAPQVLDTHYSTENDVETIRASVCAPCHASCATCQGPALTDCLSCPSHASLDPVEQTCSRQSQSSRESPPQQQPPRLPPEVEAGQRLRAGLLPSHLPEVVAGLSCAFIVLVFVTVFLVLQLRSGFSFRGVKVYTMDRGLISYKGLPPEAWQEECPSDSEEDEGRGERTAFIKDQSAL
# Summary of the method: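 Fluorogenic cleavage of BOC-RVRR-AMC (2 microM final, Km ~15 µM) was monitored (ex 340, em 450 nm) at 37C after 15 min RT preincubation of 5 nM furin with compounds in HEPES pH 7.0 buffer with CaCl2 and Triton X-100. Percent inhibition was fitted to a 4-parameter Hill curve.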
# [1] = ZIKV-mCherry secondary qHTS for Zika virus inhibitors (AID 1347158); settings: Vero cells, ZIKV-mCherry infection imaging, 48-72 h; activity change, negative = inhibition: at 49.2 µM (top of the series); further: top concentration of the series differs between compounds
# Summary of the method: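 Vero, 5,000 cells/well, o/n 37 °C; cpd pin-transferred in DMSO; ZIKV-mCherry MOI 1, 48-72 h 37 °C; 32% PFA stock fix, Hoechst; imaged 10x DAPI/mCherry; mCherry+ threshold 450 RFU; % infection.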
# [2] = tested on: Zika virus NS2B-NS3 protease (linked construct); experiment: Primary screen NINDS Rhodamine qHTS for Zika virus inhibitors (AID 1347160); further: potency means the concentration at half of the fitted maximal effect; nearly all actives have a fitted effect of over 55% in size
# Summary of the method: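 In 10 mM Tris-HCl pH 8.0 containing 0.01% Tween 20, linked NS2B-NS3 protease (25 nM final) is exposed to test compounds for 15 min. Cleavage of 1.5 microM Rhodamine110 substrate is tracked by fluorescence over 15 min.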
# [3] = Tertiary RLuc qRT-PCR qHTS assay for Zika virus inhibitors (AID 1347169); further: nearly all actives have a fitted effect of over 55% in size; further: potency means the concentration at half of the fitted maximal effect; on activity change, negative = inhibition: top concentration of the series differs between compounds; on the % scale 0 is the no-effect control and ±100 the full control effect
# Summary of the method: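 Inhibition of ZIKV-RLuc replication in Vero cells, read as Renilla luminescence 1-1.5 hrs after live-cell substrate addition, following 48-72 hrs infection at MOI 1-2 in presence of compound.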
# [4] = UWB1.289 Cancer Cell Toxicity qHTS against the NCATS CANVASS Library (AID 1347347); further: potency means the concentration at half of the fitted maximal effect; nearly all actives have a fitted effect of over 60% in size
# Summary of the method: (§1)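 Viability was assessed by adding CellTiter-Glo reagent to treated cultures and reading luminescence after 15min at room temperature. Treatment lasted 72 h at 37 degrees C/5% CO2, using an 11-point series on 1000 cells/well.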
# [5] = SW1088 Cancer Cell Toxicity qHTS against the NCATS CANVASS Library (AID 1347350); further: potency means the concentration at half of the fitted maximal effect; nearly all actives have a fitted effect of over 75% in size
# Summary of the method: as §1
# [6] = U-118MG Cancer Cell Toxicity qHTS against the NCATS CANVASS Library (AID 1347351); further: potency means the concentration at half of the fitted maximal effect
# Summary of the method: as §1
# [7] = COV-362 Cancer Cell Toxicity qHTS against the NCATS CANVASS Library (AID 1347352); further: potency means the concentration at half of the fitted maximal effect
# Summary of the method: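 Luminescent ATP read-out (CellTiter-Glo, 15min at room temperature) measures survival after cells face an 11-point compound series for 72 hours at 37 degrees C/5% CO2.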
# [8] = tested on: NAD(P)H diaphorase (Clostridium kluyveri); experiment: Diaphorse counterscreen qHTS: Assay Interference Panel against the NCATS CANVASS Library (AID 1347362); further: potency means the concentration at half of the fitted maximal effect
# Summary of the method: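 Clostridium kluyveri diaphorase in PBS + 0.01% Tween-20 preincubated 15 min with compounds. Resazurin and NADH then added for 5 min at room temperature in the dark; resorufin fluorescence read (ex 525, em 598).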
# [9] = KB-8-5-11 Cancer Cell Toxicity qHTS against the NCATS CANVASS Library (AID 1347364); settings: activity change, negative = toxicity: at 46.1 µM (top of the series); further: nearly all actives have a fitted effect of over 75% in size
# Summary of the method: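 Plate 500 KB-8-5-11 cells per well in DMEM + 10% FBS, add compounds by pin transfer, incubate 72 hr at 37C. Add CellTiter-Glo, wait 10 minutes at room temperature, read luminescence.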
# [10] = KB-3-1 Cancer Cell Toxicity qHTS against the NCATS CANVASS Library (AID 1347366); further: on the % scale 0 is the no-effect control and ±100 the full control effect; nearly all actives have a fitted effect of over 75% in size
# Summary of the method: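 Cytotoxicity toward KB-3-1 cells (500/well, DMEM + 10% FBS) was scored by CellTiter-Glo luminescence following 72 hr exposure at 37C, with bortezomib titrated as control.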
# [11] = G06 Cancer Cell Toxicity qHTS against the NCATS CANVASS Library (AID 1347368); further: on the % scale 0 is the no-effect control and ±100 the full control effect; nearly all actives have a fitted effect of over 60% in size
# Summary of the method: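 Dog G06 glioma line, 500 cells/well; cpds pin-transferred, 11-pt; 72 hr, 37C/5% CO2; CellTiterGlo luminescence (ATP) endpoint.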
# [12] = target: Nuclear receptor subfamily 1 group I member 3 (Homo sapiens) (UniProt Q14994); experiment: qHTS for Constitutive Androstane Receptor (CAR) Agonist screened against the NCATS CANVASS Library (AID 1347373);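 further: every well also contained 1.5 µM PK11195 alongside the test compound; 0% is about no effect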
# Sequence of UniProt Q14994 (Q14994 whole entry, looked up): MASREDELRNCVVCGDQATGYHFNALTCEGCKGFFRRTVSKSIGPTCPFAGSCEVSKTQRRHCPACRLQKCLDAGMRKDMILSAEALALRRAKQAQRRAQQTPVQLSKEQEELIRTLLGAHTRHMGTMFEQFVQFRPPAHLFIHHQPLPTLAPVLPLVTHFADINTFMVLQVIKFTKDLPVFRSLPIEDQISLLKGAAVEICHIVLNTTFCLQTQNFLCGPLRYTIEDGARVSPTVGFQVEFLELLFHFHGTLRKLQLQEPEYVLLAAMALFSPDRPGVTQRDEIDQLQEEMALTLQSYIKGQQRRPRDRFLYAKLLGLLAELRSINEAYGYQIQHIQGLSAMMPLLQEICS
# Summary of the method: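 HepG2-hCAR-CYP2B6 cells, 2500/well, attached 4hr; cpd + PK11195 1.5uM final; 24hr 37C 5% CO2. CellTiter-Fluor viability read, then ONE-Glo luminescence for CAR activation.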
# [13] = 10-beta competent E. coli microbial cell viability qHTS against the NCATS CANVASS Library (AID 1347376); further: potency means the concentration at half of the fitted maximal effect
# Summary of the method: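 E. coli 10-beta, 0.2 OD; cpds 11-pt; o/n 37C, 5% CO2; BacTiter-Glo 20 min RT; luminescence (ATP) = viable cells. Daunomycin ctrl.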
# [14] = DH5-alpha competent E. coli microbial cell viability qHTS against the NCATS CANVASS Library (AID 1347377); settings: viability signal change, negative = cytotoxic: at 46.1 µM (top of the series); further: potency means the concentration at half of the fitted maximal effect
# Summary of the method: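 qHTS, 11-pt; E. coli DH5-alpha, 0.2 OD; o/n 37C/5% CO2; BacTiter-Glo, 20 min RT; luminescence.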
# [15] = qHTS for H2AX Agonists against the NCATS CANVASS Library (AID 1347378);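 further: phospho-H2AX S139 level in CHO-K1 lysates by TR-FRET emission ratio; 0% is about no effect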
# Summary of the method: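 Signal is the 665/620 nm emission ratio from europium cryptate and d2 antibody pair, rising with S139-phosphorylated H2AX. CHO-K1 cells saw test agents for 3 hr at 37C; detection ran 24 hr at room temperature.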
# [16] = Secretion counterscreen for inhibitors of the SERCaMP assay screened against the NCATS CANVASS Library (AID 1347390); settings: SH-SY5Y constitutive GLuc secretion, luminescence, 20 h; activity change, negative = inhibition: at 76.6 µM (top of the series)
# Summary of the method: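 Natural products are titrated in an 11-point series up to 77 uM onto SH-SY5Y-GLuc STOP cells for 20 h. Secreted reporter activity is measured as coelenterazine-driven luminescence, with Brefeldin A on each plate.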
# [17] = qHTS for inhibitors of ER calcium dysfunction: SERCaMP assay screened against the NCATS CANVASS Library (AID 1347393); settings: SH-SY5Y GLuc-SERCaMP secretion, thapsigargin, luminescence; activity change, negative = inhibition: at 76.6 µM (top of the series) unless noted;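 further: on the % scale 0 is the no-effect control and ±100 the full control effect; lower secreted reporter signal means inhibitor of ER calcium depletion; nearly all actives have a fitted effect of over 40% in size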
# Summary of the method: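 SH-SY5Y GLuc-SERCaMP, 1000 cells/well, 4 h attach; cpd 16 h, 37C/5% CO2; thapsigargin (added as 6x 600 nM) 4 h; coelenterazine; luminescence. Reduced reporter release = ER Ca stabilization.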
# [18] = Viability qHTS for inhibitors of the SERCaMP assay screened against the NCATS CANVASS Library (AID 1347400); further: potency means the concentration at half of the fitted maximal effect; nearly all actives have a fitted effect of over 70% in size
# Summary of the method: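 SH-SY5Y SERCaMP MJH297 cells, 1000/well; 4 h settle, 37C/5% CO2; pin-transferred cpds; 48 h; CellTiter-Glo lum. Pos ctrl bortezomib 0.0001 - 4.6 uM.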
# [19] = Redox Reaction Profiling qHTS: Assay Interference Panel against the NCATS CANVASS Library (AID 1347401); further: potency means the concentration at half of the fitted maximal effect
# Summary of the method: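 Compounds in 11-point series incubated with 5 uM resazurin and 200 uM DTT in 50 mM HEPES pH 7.3, 50 mM NaCl. Resorufin fluorescence (Ex 525/Em 598) read before and after 15 min in the dark.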
# [20] = target: Cytochrome P450 3A4 (Homo sapiens) (UniProt P08684); experiment: qHTS Assay for Inhibitors and Substrates of Cytochrome P450 3A4 (AID 884); settings: recombinant CYP3A4, Luciferin-PPXE luminescence; activity change, negative = inhibition: at 57.1 µM (top of the series); further: on the % scale 0 is the no-effect control and ±100 the full control effect; nearly all actives have a fitted effect of over 50% in size
# Sequence of UniProt P08684 (P08684 whole entry, looked up): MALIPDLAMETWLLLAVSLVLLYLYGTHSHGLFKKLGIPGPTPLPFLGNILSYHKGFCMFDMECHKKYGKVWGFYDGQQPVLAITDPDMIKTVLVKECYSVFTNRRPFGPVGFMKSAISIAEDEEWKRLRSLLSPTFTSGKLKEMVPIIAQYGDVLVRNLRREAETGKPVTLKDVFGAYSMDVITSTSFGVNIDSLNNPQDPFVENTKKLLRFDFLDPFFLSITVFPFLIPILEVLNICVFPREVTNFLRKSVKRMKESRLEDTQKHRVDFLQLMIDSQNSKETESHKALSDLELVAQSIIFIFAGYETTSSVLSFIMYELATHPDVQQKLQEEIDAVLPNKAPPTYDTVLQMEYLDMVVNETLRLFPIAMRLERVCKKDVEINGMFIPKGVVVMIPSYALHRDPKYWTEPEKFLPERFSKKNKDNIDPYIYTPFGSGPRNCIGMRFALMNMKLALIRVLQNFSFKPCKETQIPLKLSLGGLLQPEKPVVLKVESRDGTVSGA
# Summary of the method: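 20 nM human CYP3A4 with 25 uM Luciferin-PPXE (at KM) in 200 mM KPO4, preincubated 10 min with compound; NADPH regeneration started a 60 min RT reaction. Luciferin detected by luminescence, normalized to 57 uM ketoconazole as full inhibition.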
# [21] = target: Ubiquitin carboxyl-terminal hydrolase 1 (Homo sapiens) (UniProt O94782); experiment: Inhibitors of USP1/UAF1: Pilot qHTS (AID 504865);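 further: rhodamine fluorescence freed from ubiquitin-rhodamine substrate followed over time; potency means the concentration at half of the fitted maximal effect; nearly all actives have a fitted effect of over 35% in size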
# Sequence of UniProt O94782 (O94782 whole entry, looked up): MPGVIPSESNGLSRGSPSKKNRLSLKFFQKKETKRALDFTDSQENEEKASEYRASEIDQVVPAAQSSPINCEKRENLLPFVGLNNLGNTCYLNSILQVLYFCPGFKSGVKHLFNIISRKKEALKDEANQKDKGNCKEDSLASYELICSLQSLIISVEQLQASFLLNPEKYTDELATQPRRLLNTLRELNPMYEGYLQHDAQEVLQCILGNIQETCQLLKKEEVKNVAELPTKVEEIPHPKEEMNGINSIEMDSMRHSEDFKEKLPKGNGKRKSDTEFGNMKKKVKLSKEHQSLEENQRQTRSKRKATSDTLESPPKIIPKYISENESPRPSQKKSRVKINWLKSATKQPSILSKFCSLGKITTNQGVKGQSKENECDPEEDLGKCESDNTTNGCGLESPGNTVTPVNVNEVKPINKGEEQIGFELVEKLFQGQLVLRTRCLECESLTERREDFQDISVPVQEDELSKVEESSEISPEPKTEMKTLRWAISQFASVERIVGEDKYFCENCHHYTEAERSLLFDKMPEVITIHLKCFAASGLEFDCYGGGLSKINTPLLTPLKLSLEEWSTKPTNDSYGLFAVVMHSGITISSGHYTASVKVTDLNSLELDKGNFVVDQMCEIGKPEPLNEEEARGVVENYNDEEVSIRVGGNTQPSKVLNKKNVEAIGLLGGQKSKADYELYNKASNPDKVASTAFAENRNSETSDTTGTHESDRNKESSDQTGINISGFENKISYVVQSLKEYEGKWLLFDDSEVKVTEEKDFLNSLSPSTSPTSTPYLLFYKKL
# Summary of the method: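 Enzyme-free wells gave the negative control, while test wells held 1nM USP1/UAF1 preincubated with compound for 15 min at room temperature. Ub-Rho at 150nM final started the reaction, and fluorescence at 480/540 nm was recorded kinetically.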
# [22] = Confirmatory screen GU Rhodamine qHTS for Zika virus inhibitors qHTS (AID 1347157); further: potency means the concentration at half of the fitted maximal effect; nearly all actives have a fitted effect of over 70% in size
# Summary of the method: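 Buffer 10 mM Tris-HCl pH 8.0, 0.01% Tween 20. Unlinked protease 25 nM; compound preincubation 15 min, RT, protected from light. Substrate Rhod110, 1.5 microM; ~15% conversion in 15 min.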
# [23] = tested on: Zika virus NS2B-NS3 protease (linked construct); experiment: 384 well plate NINDS Rhodamine confirmatory qHTS for Zika virus inhibitors (AID 1347164);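 further: top concentration of the series differs between compounds; plate controls were no-inhibitor control for no effect and no-enzyme control for full effect; nearly all actives have a fitted effect of over 65% in size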
# Summary of the method: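 Cleavage of Ac-LKRR-Rhodamine 110 (10 microM final) by linked protease (final 5, 30 or 60 nM) was followed as fluorescence at 485/538 nm after 25 min, room temperature, dark. Compounds preincubated ~15 min.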
# [24] = tested on: Zika virus NS2B-NS3 protease (linked); experiment: 384 well plate NINDS AMC confirmatory qHTS for Zika virus inhibitors (AID 1347163); further: nearly all actives have a fitted effect of over 50% in size; further: potency means the concentration at half of the fitted maximal effect;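 on activity change, negative = inhibition: linked protease at 5 30 or 60 nM final depending on run; fluorescence of AMC released from Ac-VKTGKR-AMC peptide cleaved by the protease; top concentration of the series differs between compounds; 0% = no-inhibitor control and -100% = no-enzyme control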
# Summary of the method: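 Linked NS2B-NS3 protease (final 5 nM, 30 nM or 60 nM) was preincubated with compounds (final up to 1 mM) for ~15 minutes. Ac-VKTGKR-AMC substrate (final 30 microM) then reacted for 25 minutes at room temperature in the dark. Fluorescence (ex 355/em 460 nm) was normalized to no-enzyme and no-inhibitor controls.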
# [25] = Confirmatory screen NINDS Rhodamine qHTS for Zika virus inhibitors (AID 1347161); further: potency means the concentration at half of the fitted maximal effect; nearly all actives have a fitted effect of over 60% in size
# Summary of the method: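 Single-chain NS2B-NS3 protease, 25 nM, pH 8.0; compounds preincubated 15 min. Activity: Rhodamine110 release from 1.5 microM substrate over 15 min, room temperature, data fitted to 4-parameter Hill.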
# Tags describe the fitted curve by direction and shape.
smiles,measurement,setting,value
O=C(OC1Cc2c(O)cc(O)cc2OC1c1cc(O)c(O)c(O)c1)c1cc(O)c(O)c(O)c1 (stereo not drawn),Potency,Furin (Homo sapiens),inactive
same,Potency,[1],inactive
same,Potency,[2],active: 1.56 µM
same,Potency,[3],inconclusive [inhibitor]
same,Potency,[4],"inconclusive [cytotoxic, partial curve, poor fit]"
same,Potency,[5],"inconclusive [cytotoxic, single point]"
same,Potency,[6],"inconclusive [cytotoxic, partial curve, poor fit]"
same,Potency,[7],"inconclusive [cytotoxic, partial curve, poor fit]"
same,Potency,[8],"inconclusive [inhibitor, partial curve]"
same,Potency,[9],inactive
same,Potency,[10],inactive
same,Potency,[11],inactive
same,Potency,[12],inactive
same,Potency,[13],"inconclusive [cytotoxic, partial curve, poor fit]"
same,Potency,[14],"inconclusive [cytotoxic, partial curve]"
same,Potency,[15],inactive
same,Potency,[16],"inconclusive [inhibitor, partial curve, poor fit]"
same,"activity change, negative = inhibition",[17],inconclusive: -38.2% [inhibitor]
same,Potency,[18],"inconclusive [cytotoxic, single point]"
same,Potency,[19],"inconclusive [activator, partial curve]"
O=C(OC1Cc2c(O)cc(O)cc2OC1c1cc(O)c(O)c(O)c1-c1c(C2Oc3cc(O)cc(O)c3CC2OC(=O)c2cc(O)c(O)c(O)c2)cc(O)c(O)c1O)c1cc(O)c(O)c(O)c1 (stereo not drawn),Potency,[20],inactive
same,Potency,[21],active: 50.1 µM
same,Potency,Furin (Homo sapiens),"inconclusive [inhibitor, single point]"
same,Potency,[22],"inconclusive [inhibitor, full curve]"
same,Potency,[23],inactive
same,Potency,[3],"inconclusive [inhibitor, full curve, poor fit]"
Cc1ccc2nc(-c3ccc(N=Nc4cc(S(=O)(=O)O)c5ccccc5c4O)cc3)sc2c1S(=O)(=O)O,Potency,Furin (Homo sapiens),active: 59.1 µM
same,Potency,[1],inactive
same,Potency,[24],inactive
COC(=O)c1ccc([C@H]2Nc3ccc(S(=O)(=O)Nc4cccc(C)c4)cc3[C@H]3C=CC[C@H]32)cc1,Potency,Furin (Homo sapiens),"inconclusive [inhibitor, partial curve, poor fit]"
same,Potency,[1],inactive
same,Potency,[25],active: 25.1 µM
same,Potency,[3],inactive
Cc1ccc(NC(=O)c2ccc3c(O)c(S(=O)(=O)c4ccccc4)c(=O)[nH]c3c2)cc1Cl,Potency,Furin (Homo sapiens),"inconclusive [inhibitor, single point]"
same,Potency,[1],inactive
same,Potency,[25],active: 6.31 µM
same,Potency,[24],active: 282 µM
same,Potency,[3],inactive
